Laboratory results from PubChem BioAssay AID588855 (National Center for Advancing Translational Sciences (NCATS), 2011).
“And” between values parts separate entries of the source, which are not always exact repeats. Identical values can stand only once. In all, about 410,000 compounds went through this assay and about 5,000 (1.2%) were called active. Inconclusive results, whose numbers are uncertain, are shown with a selection of clear calls. The call rests on the fitted dose curve; in most records, active means well fitted inhibition curve with a large enough effect; inconclusive means small, poorly fitted or top-dose-only effect; inactive means no such curve, though single readings can be large or run the other way. A potency beside an inconclusive call is a rough fit, not a confirmed value.
Potency means the concentration at half of the fitted maximal effect; tags describe the fitted curve by direction and shape.

Experiment: qHTS for Inhibitors of TGF-b; further: nearly all actives have a fitted effect of over 65% in size
Details: HepG2 CAGA-GFP TGF-b/SMAD3 reporter, GFP fluorescence, 18 h, TGF-beta stimulated, 500 pg/mL final; series mostly up to 46.1 µM
Summary of the method: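 Per well, imaged GFP fluorescence of HEPG2 CAGA-GFP cells gives the signal; cells get compound, then TGF-beta (500 pg/mL final), 18 h at 37 degrees C; %Activity versus -TGF-beta and +DMSO controls.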
In the case of COc1ccc(-c2cnc3c(NC=O)cc(-c4ccccc4OC)cn23)cc1OC, the Potency was inconclusive: 10 µM [inhibitor, partial curve, poor fit]. For CCCCNC(=S)Nc1ccc(-c2nc3ccc(C)cc3s2)cc1, the Potency was “inactive”. For Cc1cccc(C)c1NC(=O)N1CC(C)OC(C)C1 (centres undefined), the Potency was “inactive”. In the case of CC(C)Cc1ccc(C(C)NC(=O)Cc2ccc(S(=O)(=O)N3CCOCC3)s2)cc1 (centres undefined), the Potency was “inactive”. For COc1cccc(-c2cccc3c2NC(=O)C3(C)Cc2cccc(F)c2)c1 (centres undefined), the Potency was inconclusive: 22.4 µM [inhibitor, single point]. In the case of COc1ccccc1NS(=O)(=O)c1ccc(NC(C)=O)cc1, the Potency was “inactive”. With COc1ccc(-c2cn3c(C)c(C(=O)N4CCN(c5ccccc5F)CC4)sc3n2)cc1 the Potency was inconclusive: 35.5 µM [inhibitor, single point]. For Cc1ccc(Cl)cc1NC(=O)c1cc(NC(=O)CCCC(=O)O)ccc1N1CCCCC1, the Potency was inconclusive: 15.8 µM [inhibitor, single point]. With CCOC(=O)CON1C(=O)c2ccccc2C1=O the Potency was inconclusive: 8.91 µM [inhibitor, partial curve]. For CCc1cc2ccc(C)cc2nc1SCC(=O)c1ccc(NC(C)=O)cc1, the Potency was inconclusive: 14.1 µM [inhibitor, partial curve, poor fit]. With Cn1c(N)c(C(=O)COC(=O)/C=C/c2ccc(S(=O)(=O)N3CCOCC3)cc2)c(=O)n(C)c1=O the Potency was inconclusive: 3.55 µM [inhibitor, single point]. For CCC1CCCCN1C(=O)CSc1nnc(CNC(=O)c2c(F)cccc2Cl)o1 (centres undefined), the Potency was “inactive”. With O=C(Nc1nc(C2C3CC4CC(C3)CC2C4)cs1)c1cc2cc([N+](=O)[O-])ccc2oc1=O (centres undefined) the Potency was inconclusive: 28.2 µM [inhibitor, single point]. In the case of N#Cc1ccc2[nH]c(CO)c(-c3ccccc3)c2c1, the Potency was inconclusive: 31.6 µM [inhibitor, single point]. In the case of CCO[C@@H]1OC(C(=O)N2CCN(Cc3ccc4c(c3)OCO4)CC2)=C[C@H](c2ccc(C(F)(F)F)cc2)[C@H]1CCCO, the Potency was inconclusive: 35.5 µM [inhibitor, single point]. In the case of CCCNC(=O)c1ccc(-n2c(-c3ccccc3)cc3c2CCC(C)C3)cc1 (centres undefined), the Potency was inconclusive: 35.5 µM [inhibitor, single point]. For CCOc1ccccc1NC(=O)c1c(NCc2sccc2C)sc2c1CCCCC2, the Potency was inconclusive: 14.1 µM [inhibitor, single point]. With Cc1ccc(C)c(S(=O)(=O)N2CCN(C(=O)CCNC(=O)c3ccc(Br)cc3)CC2)c1 the Potency was “inactive”. For O=C(Nc1ccccc1)c1cc([N+](=O)[O-])ccc1NCc1cccnc1, the Potency was inconclusive: 22.4 µM [inhibitor, single point]. In the case of O=C(COc1ccccc1Cc1ccccc1)Nc1cccnc1, the Potency was inconclusive: 35.5 µM [inhibitor, single point]. With COC(=O)[C@@]1(Cc2ccc(OC)cc2)[C@H]2c3cc(C(=O)N(C)C)n(Cc4ccc(OC(F)(F)F)cc4)c3C[C@H]2CN1C(=O)c1ccccc1 the Potency was inconclusive: 28.2 µM [inhibitor, partial curve, poor fit]. In the case of COc1ccc([C@H]2C[C@@H](O)[C@H](n3cc(C4CC4)nn3)CN2CC2CCCCC2)cc1, the Potency was inconclusive: 20 µM [inhibitor, single point]. In the case of Cc1cc(OCC(=O)C(C)(C)C)c2c(C)c(C)c(=O)oc2c1, the Potency was inconclusive: 3.98 µM [inhibitor, single point]. With Cc1ccc(-c2cc(C(F)F)n3ncc(C(=O)N4CCCc5ccccc54)c3n2)cc1 the Potency was “inactive”. In the case of COc1ccc(S(=O)(=O)N2CCC(C(=O)Nc3cc(Cl)ccc3N3CCOCC3)CC2)cc1OC, the Potency was inconclusive: 0.631 µM [inhibitor, partial curve, poor fit]. In the case of CCCCC[C@H]1CN(C2CCCCC2)C(=O)[C@@H]1CC(=O)NCc1ccc(OC)cc1, the Potency was inconclusive: 35.5 µM [inhibitor, single point] and inconclusive: 35.5 µM [inhibitor, partial curve, poor fit]. With NC(=O)c1ccsc1NC(=O)COC(=O)/C=C/c1ccccc1[N+](=O)[O-] the Potency was inconclusive: 0.891 µM [inhibitor, full curve, poor fit]. In the case of O=C(Nc1ccccc1Cl)N1CCN(c2ccc3nnc(-c4ccc(F)cc4)n3n2)CC1, the Potency was inconclusive: 35.5 µM [inhibitor, single point]. For CCN(CC)CCOC(=O)c1ccc(NC(=O)c2cn(-c3ccccc3)nc2-c2cccs2)cc1, the Potency was inconclusive: 35.5 µM [inhibitor, single point]. For Cc1nc2ccccc2c(=O)n1-c1ccc(NC(=O)C(F)(F)F)cc1, the Potency was inconclusive: 0.112 µM [inhibitor, full curve, poor fit]. In the case of Cc1ccc(S(=O)(=O)c2cc3c(=O)n4cccc(C)c4nc3n(CC3CCCO3)c2=N)cc1C (centres undefined), the Potency was “inactive”. For Cn1cccc1CC(=O)N/N=C/c1ccc(Cl)c([N+](=O)[O-])c1, the Potency was inconclusive: 15.8 µM [inhibitor, single point]. For CCC(=O)NC(Nc1sc2c(c1C(=O)OC)CCC2)C(Cl)(Cl)Cl (centres undefined), the Potency was active: 11.2 µM. In the case of Cc1ccc(-c2nc(CS(=O)CC(=O)N3CCN(c4ccc(Cl)cc4)CC3)c(C)o2)cc1 (centres undefined), the Potency was “inactive”. With CCOC(=O)N1C2=NC(C(=O)OC)=C(C(=O)OC)[C@@H]3N(Cc4ccccc4)c4ccccc4[C@]23C[C@H]1C(=O)OC the Potency was “inactive”. For COc1ccc2nc3oc(C(=O)NCc4ccccc4OC)cc3cc2c1, the Potency was “inactive”. With COc1ccccc1-c1nnc(C2CCN(C(=O)c3ccc(C)cc3)CC2)o1 the Potency was inconclusive: 7.94 µM [inhibitor, partial curve, poor fit]. With CN1CCN(c2oc(/C=C/c3ccccc3)nc2C#N)CC1 the Potency was inconclusive: 12.6 µM [inhibitor, single point]. In the case of CCOC(=O)N1CCC(NC(=O)c2ccc3c(c2)N=C(C)c2c(C)ccc(C)c2S3)CC1, the Potency was inconclusive: 12.6 µM [inhibitor, partial curve, poor fit]. With CC1(C(=O)Nc2ccc3c(c2)OCCO3)CCN1C(=O)CC1CCCC1 (centres undefined) the Potency was “inactive”. In the case of CN(Cc1cc(Cl)cc(Cl)c1)CC(C(=O)c1ccccc1)c1ccccc1 (centres undefined), the Potency was inconclusive: 35.5 µM [inhibitor, single point]. With C[C@@H]1C(c2ccccc2)=NN(c2ccc(Br)cc2)[C@H]1C(=O)N1CCOC1=O the Potency was inconclusive: 20 µM [inhibitor, partial curve, poor fit]. In the case of Cn1ccc2cc(S(=O)(=O)N3CCCN(C(=O)Nc4ccccc4Br)CC3)ccc21, the Potency was “inactive”. With CCOc1ccc(CNC(=O)CCC(=O)N2CC(C)Sc3ccccc32)cc1 (centres undefined) the Potency was “inactive”. In the case of COc1ccc(-n2c(COc3ccc(Cl)cc3)nnc2SCc2ccc(C#N)cc2)cc1, the Potency was inconclusive: 25.1 µM [inhibitor, single point]. With CCOc1ccc(CCNC(=O)CCCn2nc(C)c3sc4ccccc4c3c2=O)cc1OCC the Potency was “inactive”. With CCn1c2ccccc2c2nnc(SCCN3CCCCC3)nc21 the Potency was “inactive”. In the case of N#C/C(=C/c1cn(Cc2ccc(F)cc2)c2ccccc12)C(=O)Nc1cccc(Cl)c1, the Potency was inconclusive: 2.51 µM [inhibitor, full curve]. For COc1ccccc1Nc1nn2c(=O)c3ccc(C(=O)NCCCOC(C)C)cc3nc2s1, the Potency was inconclusive: 6.31 µM [inhibitor, partial curve, poor fit]. In the case of COc1ccc(N2C(=O)N3[C@H](c4ccc(Cl)cc4)[C@@H]4C(=O)N(C5CCCCC5)C(=O)[C@@H]4[C@]3(C)C2=O)cc1, the Potency was inconclusive: 11.2 µM [inhibitor, partial curve, poor fit]. In the case of COc1ccc(/C=N/Nc2nncn2N)cc1Br, the Potency was inconclusive: 22.4 µM [inhibitor, single point]. In the case of Cc1ccc(Nc2nnc(SCc3cc(=O)n4ccsc4n3)s2)c(C)c1, the Potency was inconclusive: 35.5 µM [inhibitor, single point]. For Cc1ccc(S(=O)c2snnc2C)cc1 (centres undefined), the Potency was “inactive”. With O=C(Cn1cc(F)c(=O)[nH]c1=O)c1ccco1 the Potency was “inactive”. In the case of Cn1nnnc1SCCNCc1ccc(F)cc1, the Potency was inconclusive: 5.62 µM [inhibitor, partial curve, poor fit]. In the case of Cc1ccc(C)c(-n2cc(CNCCc3cnccn3)c(-c3ccccc3)n2)c1, the Potency was inconclusive: 35.5 µM [inhibitor, single point]. In the case of COc1cccc(NC(=O)c2ccc(NC(=O)C(C)(C)C)cc2)c1, the Potency was “inactive”. For OC1CC2CCC(C1)N2CCCN1c2ccccc2Sc2ccc(Cl)cc21 (centres undefined), the Potency was inconclusive: 35.5 µM [inhibitor, single point]. For COc1cc(/C=C2\Oc3ccc(C#Cc4ccc(O)cc4)cc3C2=O)cc(OC)c1, the Potency was active: 7.08 µM. In the case of COc1ccc(/C=C/c2nnc(NC(=O)COc3cccc(C)c3)s2)cc1, the Potency was inconclusive: 3.55 µM [inhibitor, single point]. For O=C(NCCOC12CC3CC(CC(C3)C1)C2)c1cccc(Br)c1, the Potency was inconclusive: 15.8 µM [inhibitor, partial curve, poor fit]. For O=S(=O)(Nc1ccc(Cl)cc1)c1ccc(NS(=O)(=O)c2ccc3c(c2)OCCO3)cc1, the Potency was inconclusive: 22.4 µM [inhibitor, single point]. For O=C1/C(=C/c2cccc(F)c2)Oc2cc(O)ccc21, the Potency was inconclusive: 35.5 µM [inhibitor, single point]. For O=C(Nc1ccc(N2CCOCC2)cc1)c1cccc(S(=O)(=O)N2CCCCC2)c1, the Potency was “inactive”.
